# Measured values published in the supplement of paper PMC11417369.
# ± gives the standard deviation of the averaged measurements. The list shows a part of the results.
# Test system: PfAP2-LT AP2 domain (GST-tagged)
# Assay: gcPBM binding intensity (ln(normalized median fluorescence intensity)); higher = stronger DNA binding
# Procedure, shortened: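 Alexa488 anti-GST antibody, scanned at 488 nm, detected GST-tagged P. falciparum DNA-binding domains that had been expressed in E. coli and incubated for 1 h on an Agilent 4 × 180k array. The array carried primer-extended double-stranded 36-bp intergenic genomic probes and negative controls. Binding intensity is the highest Masliner-normalised natural-log median intensity across replicate spots of either orientation of each probe.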
row,Sequence,gcPBM binding intensity (ln)
1,TAGTATGATAACTTGGGTACATAAATATGGAGTATC [XGTACX_site1296],8.93 ± 0.52
2,TTCATTTTATTTTAAGTGCATATTTTTATTTTTTTG,8.64 ± 0.47
3,TTTTTAATTCAAAAAACTGTATGTTATATGTCAAAT [CACACA_negctrl_site72],8.32 ± 0.45
4,AGAAAGGATATTATATGTACATATCTTTGTATTTTT [XGTACX_site5040],8.93 ± 0.46
5,CATACCCATAAACACACACACATATATACCTATATA [CACACA_site4745],9.69 ± 0.39
6,ACTATACAGTTATACACACACATATATCTATAATAT [CACACA_site6283],9.3 ± 0.3
7,ATACATATATATATATGTACATATGTATTTTTTATT [XGTACX_site105],9.01 ± 0.41
8,TTTACATATTTATATACACACTTTTGCGTGCGTGGT [CACACA_site6647],9.26 ± 0.54
9,AATAAAATATATTCCTGTACATATGATTCTTTTTTT [XGTACX_site7980],8.68 ± 0.49
10,TAGTATAATATGAACACACACACACCGACAAAAAAA [CACACA_site5151],9.96 ± 0.2
11,AATTGAAAAAGAAATTGTACATTTTATTTTTATTAT [XGTACX_site1973],8.48 ± 0.44
12,ATATAATTTATATATTCACACAAGGAATACTTTTAT [CACACA_site5506],8.65 ± 0.46
13,TTTTATTTGACAAGCACACACTTAAATATATATATA [CACACA_site5792],8.9 ± 0.3
14,AAACAAAAAATAAAATGTACATTTATTACGATAAGT [XGTACX_site2392],9.09 ± 0.4
15,GGATAATATATTAGAACACACATATATATGTAAAAA [CACACA_site185],9.04 ± 0.42
16,ATGGAATAATCACGTACACACAAGAAAAAAAAAAAT [CACACA_site527],9.3 ± 0.49
17,ATTACAAATACAAACACACAAATGTTTTTCATTCAA [CACACA_site7639],8.74 ± 0.38
18,AGTAAATTTGATGGTCGTACAAAAAAAAAGTAGGAC [XGTACX_site2600],9.03 ± 0.48
19,TTTTTAATCAGAAATATTTATTAAAGAATTTTATAG [GTGCAC_negctrl_site725],7.99 ± 0.49
20,ATATACATAATTTGGAGTACAATATCATATAAATAT [XGTACX_site6334],8.79 ± 0.45
21,ACGAAGTATATGAATACACACATATTTTTAATGAAA [CACACA_site4070],8.98 ± 0.4
22,TATATGTATGTTTGTGTGCACACATAAATATTATAT,9.64 ± 0.26

row,Sequence,gcPBM binding intensity (ln)
1,ATATATATATATATATGTACTTATGTCATCATTAAA [XGTACX_site5316],9.47 ± 0.37
2,TTTTACAATAACAATACACACTATAATATGTAAATA [CACACA_site6772],8.82 ± 0.35
3,CATTTAAAATTTGTTTGTACATATATATATATATAT [XGTACX_site6729],9.185 ± 0.078
4,AATGTACAAATACGTACACACATATATATATATATA [CACACA_site1542],10.1 ± 0.18
5,AAATAAAGGAAATGTATATCAACATTAAAATAAGGC [CACACA_negctrl_site441],9.13 ± 0.48
6,GTATAAAATATTTTATGTACATAATATATATATATA [XGTACX_site2489],8.8 ± 0.28
7,GTTTTTGAGTAGTACACACACAATAAGGATGGATTC [CACACA_site3192],9.22 ± 0.3
8,ACATCTAGGCTTATTTTATGATACATGTGAATATAT [TGCATGCA_negctrl_site325],8.91 ± 0.4
9,ATAAAGATAATATATGCACACATATAAATATATAAA [CACACA_site9153],9.09 ± 0.43
10,AATAATATTAATAAAAGTACATGTGTAATATATATA [XGTACX_site5922],9.01 ± 0.44
11,ATAAAAACTACATTCACACAAAAAAAAATCTACAAA [CACACA_site6109],8.71 ± 0.49
12,ATATATATATGTTAGGTGCATATATATTTTGTGGAT [GTGCAC_site9964],9.01 ± 0.28
13,ATATATATAATATATTGTACATATAATATATATATA [XGTACX_site4792],8.61 ± 0.33
14,GATATGATTATGTGATGGTGTTTTTGATAGATATTT [CACACA_negctrl_site1445],8.97 ± 0.33
15,GAATAATTAAAAGGTAGTACAAAGGTTATCAAAAGG [XGTACX_site8496],8.95 ± 0.43
16,TTGTTCTTTTGAAAGGTGCAAAAGAAAAATAATTAA,8.66 ± 0.53
17,AGAAAACCGAAAGAGACACACAACATGTCGATTTAG [CACACA_site3764],9.2 ± 0.49
18,ACTAAAAGGCTTAAATGTACATATTATATATATATA [XGTACX_site5897],8.89 ± 0.42
19,ACATAACTTATATATACACACAATACAAATATATAT [CACACA_site2774],9.18 ± 0.38
20,CTTTTTTTTTTGGGGGTGCATGCAAGACATATATTT [GTGCAC_site9660],9.29 ± 0.16
21,TTTAATTTTTATATAACACACATATTGTAATTATGT [CACACA_site4566],9.04 ± 0.47
22,ATGTTTAATTAAATATGTACTTATTATATTATATGT [XGTACX_site8137],8.78 ± 0.5

row,Sequence,gcPBM binding intensity (ln)
1,AGGAATCTACATATATGTACATATATTGATATATTT [XGTACX_site137],9.04 ± 0.38
2,TATATATGTAGACGTTGTACTTTTTTGTAAGTTTAA [XGTACX_site5638],8.65 ± 0.34
3,TGTGTCAAGTTTAATAAACGCATATAATATATATGA [CACACA_negctrl_site607],8.59 ± 0.41
4,TTTAAATTTTTATATTGTACTTTATTTATTTATTTA [XGTACX_site869],8.66 ± 0.58
5,AAAATAAAATCATAAAGTACAAAAAGAAAATAAAAA [XGTACX_site7376],8.8 ± 0.42
6,CATGACATATCCTGTAGTACAACGTATATATAAGAT [XGTACX_site2577],9.1 ± 0.46
7,AATTTTCAATAGTATACACACAATTATATATATATA [CACACA_site1116],8.87 ± 0.37
8,TCTTTTCTCGGAAGGGTGCAAGGAATTAATGAAATA [GTGCAC_site9706],8.38 ± 0.42
9,TCAATAAATATACATACATGCATACATACATACATA [TGCATGCA_site197],8.93 ± 0.27
10,TGTGTTAATATGAATTTAAACATAAATAAATAAATA [CACACA_negctrl_site1589],8.41 ± 0.4
11,GAACATTTATTGTGTGTGCACAATTCTTTTTTAACC [GTGCAC_site9697],9.2 ± 0.41
12,TTTTTTTGCGCGGGAAGAATAAAATTTATAGAATAT [TGCATGCA_negctrl_site306],8.4 ± 0.49
13,CAGACATTAATAAGTAGTACACAATAATTGACTAGG [XGTACX_site854],8.99 ± 0.45
14,TATCATGTGCGTGCGTGTACTTAACACACATAATAT [XGTACX_site2404],9.2 ± 0.25
15,TATTTTTATAAAAACTGTACATAATAAATAAAAATA [XGTACX_site4743],8.49 ± 0.35
16,AATCAAAGTAATTTAACACACAATTTTAATACTGTT [CACACA_site7169],8.84 ± 0.43
17,TTATATGTTTCTTCACGTACGTATAAAAATGAACTT [XGTACX_site1764],8.64 ± 0.37
18,TTGTTCATTATGCACAGTACATAAAAAGTAAAAAAA [XGTACX_site2403],8.66 ± 0.59
19,TCATTTATTTTAAGGTGTACCGTTTAAAATCACAAA [XGTACX_site3243],8.32 ± 0.43
20,ATATTGACAAATATTACACACATATATATATATATA [CACACA_site4079],9.6 ± 0.071
21,AATGTTTAATATAACGCATGCCTTAATATAGAATGC [TGCATGCA_site463],8.76 ± 0.36
22,TTTCTAATTTATATCACACACATATATAAATAGTAA [CACACA_site6156],8.72 ± 0.42

row,Sequence,gcPBM binding intensity (ln)
1,ATATATATAATTTAAAGTACATATTTAAGAATGAAA [XGTACX_site2238],8.54 ± 0.4
2,AGTTTTATGTAGTGTTGTACTTTATACAAATATATA [XGTACX_site990],8.72 ± 0.35
3,AGTAATAATATAATTTGTACATATATATATTATAAA [XGTACX_site7138],8.64 ± 0.4
4,TACAAAAATGTAGTCACACATATGTATACTTTTATG [CACACA_site5607],8.85 ± 0.42
5,GTTTAACTGTTTTATACACACAATGTAGACAATAAA [CACACA_site8967],8.8 ± 0.37
6,GTACAAAAAAAGTGTACACAAAGTAAGACTTTAATT [CACACA_site5068],9.08 ± 0.44
7,CACTGTAAATAGAAAGTGCAAAAATTGTAAATAAAA [GTGCAC_site9980],8.82 ± 0.6
8,TAAATACATTGACACACACACAAATATGTACATACA [CACACA_site7371],9.77 ± 0.3
9,ACTTGATTACACAACCACAAGTAATTGAAATTATTT [XGTACX_negctrl_site297],8.68 ± 0.49
10,TGAAAAGATAAAAAATGTACATATATATTATATATA [XGTACX_site5678],8.72 ± 0.48
11,TTTCTAAATAATATACACAAAAAAATAAAACACTAA [TGCATGCA_negctrl_site43],8.56 ± 0.47
12,ATACACAATTATTTTCCTATTATGCAAGCAAATTTA [CACACA_negctrl_site1176],8.52 ± 0.37
13,CATATTTGTATATGCACACATAAATTTTTCCATTTC [CACACA_site3467],8.94 ± 0.41
14,AAATTTTTAAACAGCACACATAAATATAATATATAT [CACACA_site2208],8.82 ± 0.44
15,AAACAAAAAAACTACAGTACTTTTTTCAATTCCCCT [XGTACX_site7541],8.68 ± 0.42
16,AAAATTAACCGTAACACACACACATATATATATATA [CACACA_site3964],9.96 ± 0.28
17,TATATGTTTACTTAATGTACTTACATTTTTATAACA [XGTACX_site1100],8.77 ± 0.46
18,ACATAAATAATAAAAACACACATATGTACTTATATA [CACACA_site8581],8.97 ± 0.42
19,TTATTAATTTTTATTTTTAAATCACAAAAGATATAA [CACACA_negctrl_site787],7.92 ± 0.48
20,TTACATTTTTGAAATAGATACATACACGTGTATGTA [CACACA_negctrl_site1311],8.63 ± 0.4
21,GACATTAAAATGAAATATACATATATATGTATATAT [TGCATGCA_negctrl_site601],8.82 ± 0.3
22,AATATAAGAATATATACACACATAAATACATACATA [CACACA_site4128],9.15 ± 0.37
